Screen size: about 110,000 compounds; about 40 (0.04%) were called active. The inconclusive results got no clear call from the source; some entries with a clear call stand among them for comparison. Calls come from the whole dose curve; as a rule, active = well fitted curve in the direction sought with a large enough effect in the signal ratio (not every such curve was filed as active); inconclusive = small, poorly fitted or top-dose-only effect, or a change in a side signal; inactive = flat fitted curve, though single readings scatter; the % refers to the signal ratio. Potencies of inconclusive entries are doubtful fits and often do not repeat.
Assay: IkB Signaling;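 for IkBa stabilization activation: 0% = basal untreated cells and 100% = reference inhibitor full response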
Conditions: ABC-DLBCL IkBa-CBG/CBR dual luciferase ratio (green luciferase fused to IkBa over red control in OCI-Ly3 lymphoma cells), 4 h; IkBa stabilization activation: at 57.1 µM (top of the series), scaled: untreated 0%, proteasome inhibitor 100% unless noted
How it was run: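 In this assay, an IκBα–CBG68 fusion accumulates when IKK-driven degradation is blocked; native CBR normalizes for cell number. OCI-Ly3 cells were treated 4 h with compound and doxycycline, then green and red light read after Chroma-Glo addition.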
For `COc1cccc(N2CCN(Cc3nc(N)nc(Nc4ccccc4)n3)CC2)c1`, the “IkBa stabilization activation” value was inactive: -0.631%.
In the case of `COc1ccc(C(=O)c2cn(CC(=O)Nc3cc(OC)cc(OC)c3)c3ccc(OC)cc3c2=O)cc1`, the IkBa stabilization activation is reported as inconclusive: 3.5% [signal inhibitor].
In the case of `COC(=O)c1ccccc1NC(=O)Cn1c(=O)n(CCC(=O)NCc2ccc3c(c2)OCO3)c(=O)c2ccccc21`, the IkBa stabilization activation is reported as inconclusive: 18.1% [signal activator].
In the case of `Cc1ccc(S(=O)(=O)N(Cc2nccn2C)C(C)C)cc1`, the “IkBa stabilization activation” value is reported as inactive: 6.91%.
For `CC1=C(C(=O)OC2CCCC2)C(c2c(F)cccc2Cl)CC(=O)N1` (stereo not given), the IkBa stabilization activation was inconclusive: 11.1% [signal inhibitor].
In the case of `COc1ccc(-c2noc(-c3ccco3)n2)cc1OC`, the “IkBa stabilization activation” value is reported as inactive: 0.872%.
For `Cc1ccc(-n2nnnc2SCC(=O)Nc2ccccc2N2CCCCC2)cc1C`, the “IkBa stabilization activation” value was inactive: 1.97%.
For `COC(=O)c1cccc2c1-c1ccccc1/C2=N/O`, the IkBa stabilization activation was inconclusive: -7.65% [signal inhibitor].
For `CCOC(=O)c1c(S(=O)(=O)N2CCC(C(=O)NCc3cccc(OC)c3)CC2)c(C)n(C)c1C`, the “IkBa stabilization activation” value was inactive: 0.608%.
For `CCC(C)(C)n1nnnc1C(c1cc2cc(OC)c(OC)cc2[nH]c1=O)N1CCc2ccccc21` (stereo not given), the IkBa stabilization activation was inconclusive: 0.967% [signal inhibitor].
With `Cc1cccc(N(C)C(=O)Cn2c(=O)oc3cc(S(=O)(=O)N4CCCCC4)ccc32)c1` the IkBa stabilization activation was inconclusive: 2.51% [signal inhibitor].
For `CCN1CCc2c(sc(NC(=O)c3ccc(S(=O)(=O)N4CCCC(C)C4)cc3)c2C(=O)OC)C1` (stereo not given), the IkBa stabilization activation was inconclusive: -1.43% [signal inhibitor].
For `Cc1ccccc1Cn1c(CN2CCC(C(=O)NCc3ccc(Cl)cc3)CC2)cc2ccccc21`, the IkBa stabilization activation was inconclusive: 0.579% [signal inhibitor].
In the case of `O=S1(=O)c2ccccc2N(Cc2ccccc2F)c2ccccc21`, the “IkBa stabilization activation” value is reported as inactive: -2.25%.
For `CCCCN(C)C(=O)c1ccc2c(=O)n3nc(Nc4cc(C)ccc4C)sc3nc2c1`, the “IkBa stabilization activation” value was inactive: 2.24%.
For `Cc1cc(C)c(OCC(=O)N(Cc2ccc(N(C)C)cc2)Cc2ccco2)c(C)c1`, the IkBa stabilization activation was inconclusive: 4.85% [signal inhibitor].
For `O=C(NCc1ccc2c(c1)OCO2)c1ccc2c(c1)N(Cc1c(F)cccc1Cl)C(=O)c1ccccc1S2`, the IkBa stabilization activation was inconclusive: -0.938% [signal inhibitor].
In the case of `CCOc1ccc(NS(=O)(=O)c2ccc3c(c2)NC(=O)CCS3)cc1`, the IkBa stabilization activation is reported as inconclusive: 1.22% [signal inhibitor].
In the case of `Cc1nc2sc3c(c2c(=O)o1)CCCC3`, the “IkBa stabilization activation” value is reported as inactive: 2.34%.
In the case of `COc1ccc(C2=NC(c3ccccc3)=Nc3ccc(C)cc3N2)cc1`, the IkBa stabilization activation is reported as inconclusive: 0.0468% [signal inhibitor].
In the case of `O=C1c2ccccc2C(=O)C1(O)O`, the Potency is reported as inconclusive: 39.8 µM [falling, single point].
For `O=C(c1ccccc1)[C@H](Nc1ccc2ccccc2c1)c1ccccc1`, the IkBa stabilization activation was inactive: -0.322% [at 11.4 µM, scaled: untreated 0%, proteasome inhibitor 100%].
In the case of `Cc1nc2cnc(N(C)C)nc2n(C2CC2)c1=O`, the IkBa stabilization activation is reported as inactive: -0.731% [at 11.4 µM, scaled: untreated 0%, proteasome inhibitor 100%].
In the case of `COc1ccccc1N1CCN(CC(O)COc2ccc(Cl)c(C)c2)CC1` (stereo not given), the IkBa stabilization activation is reported as inconclusive: 4.69% [signal inhibitor].
In the case of `CCc1ccccc1N1CC(C(=O)O)CC1=O` (stereo not given), the “IkBa stabilization activation” value is reported as inactive: 1.82%.
For `CN1CCN(C(=O)c2ccc3c(c2)N(Cc2ccc(F)cc2)C(=O)c2ccccc2S3(=O)=O)CC1`, the IkBa stabilization activation was inconclusive: 0.805% [signal inhibitor].
In the case of `CCC(C)NC(=O)c1c2c(nc3ccccc13)C(=O)N(C1CCCCC1)C2` (stereo not given), the “IkBa stabilization activation” value is reported as inactive: 0.238%.
With `O=C(CSc1n[nH]c(-c2ccc(F)cc2)n1)N1CCN(c2ccc(F)cc2)CC1` the IkBa stabilization activation was inconclusive: 2.43% [signal inhibitor].
With `Cc1nc2ccn(Cc3ccco3)c(=O)c2cc1C(=O)NCc1ccc(Cl)cc1` the IkBa stabilization activation was inconclusive: 1.93% [signal inhibitor].
With `Cc1ccc(CNC(=O)c2ccc3c(c2)CCN3S(=O)(=O)c2ccc(Br)cc2)cc1` the IkBa stabilization activation was inconclusive: 1.41% [signal inhibitor].
For `CCn1c(SCC(=O)Nc2cc(C)ccc2F)nnc1-c1ccccc1O`, the IkBa stabilization activation was inconclusive: 1.27% [signal inhibitor].
In the case of `CCOC(=O)CNC(=O)N1CCN(S(=O)(=O)c2ccc3c(ccn3C)c2)CC1`, the “IkBa stabilization activation” value is reported as inactive: 1.74%.
In the case of `O=C1C2C3C=CC(C2C(=O)N1CN1CCOCC1)C1C2C(=O)N(CN4CCOCC4)C(=O)C2C31` (stereo not given), the IkBa stabilization activation is reported as inactive: 0.228% [at 11.4 µM, scaled: untreated 0%, proteasome inhibitor 100%].
In the case of `COc1ccc(CC(=O)N2CC(=O)Nc3ccc(F)cc3C2c2ccccc2)cc1` (stereo not given), the “IkBa stabilization activation” value is reported as inactive: -1.59%.
With `Cc1ccc(-n2c(=O)c(C#N)cc3c(=O)n4ccccc4nc32)cc1` the “IkBa stabilization activation” value was inactive: 0.85%.
With `CCSc1nnc(NC(=O)CSc2nc(CC)nc3c2c(=O)n(C)c(=O)n3C)s1` the “IkBa stabilization activation” value was inactive: 1.99%.
For `COc1ccc(-c2nn(-c3ccccc3)cc2/C=N/n2cnnc2)cc1OC`, the “IkBa stabilization activation” value was inactive: -2.39%.
For `c1ccc(-c2noc(-c3cccc4ccccc34)n2)nc1`, the Potency was inconclusive: 25.1 µM [signal inhibitor, partial curve].
With `N=C1Sc2ccccc2C2=NCCCN12` the Potency was inconclusive: 25.1 µM [rising, partial curve].
For `CCOc1ccc(CCNC(=O)c2cnc3c(-c4ccc(F)cc4)c(C)nn3c2C)cc1`, the “IkBa stabilization activation” value was inactive: -0.536%.
In the case of `COc1ccc(N(C(=O)c2ccccc2C)S(=O)(=O)c2ccc(Cl)cc2)cc1`, the IkBa stabilization activation is reported as inconclusive: 6.11% [signal inhibitor].
With `C=CCCCCCCC=C` the “IkBa stabilization activation” value was inactive: 0.295%.
For `COc1cc(S(=O)(=O)NCCc2c(C)[nH]c3ccc(C)cc23)ccc1Br`, the IkBa stabilization activation was inconclusive: -0.697% [signal inhibitor].
For `COc1ccc(C)cc1NC(=O)CSc1nnc(-c2cc3cccc(OC)c3o2)n1N`, the “IkBa stabilization activation” value was inactive: -1.13%.
With `O=C(NCCc1nc2ccccc2n1Cc1ccccc1F)c1ccc(F)cc1` the IkBa stabilization activation was inconclusive: -1.11% [signal inhibitor].
With `O=C(C1CCC1)N1CCCc2cc(S(=O)(=O)N3CCN(c4cccc(Cl)c4)CC3)ccc21` the IkBa stabilization activation was inconclusive: 3.06% [signal inhibitor].
With `c1c[nH]cn1` the “IkBa stabilization activation” value was inactive: 1.42%.
With `CCOCc1cc(CN2CCN(c3cccc(C(F)(F)F)c3)CC2)c(O)c2ncccc12` the IkBa stabilization activation was inconclusive: 4.54% [signal inhibitor].
For `c1ccc(-c2nnc3n2NC(c2ccc4c(c2)OCO4)S3)cc1` (stereo not given), the IkBa stabilization activation was inconclusive: 2.83% [signal inhibitor].
In the case of `COc1ccc(OC)c(S(=O)(=O)Nc2ccc(O)c3ccccc23)c1`, the Potency is reported as inconclusive: 31.6 µM [signal inhibitor, partial curve].
For `COc1ccccc1NC(=O)c1cc2ccc(O)cc2o/c1=N\O`, the IkBa stabilization activation was inconclusive: 13.1% [signal inhibitor].
For `CCOc1ccccc1NC(=O)COC(=O)CC(C)(C)CC1=NS(=O)(=O)c2ccccc2N1`, the IkBa stabilization activation was inconclusive: 1.09% [signal inhibitor].
In the case of `Cc1onc(-c2ccccc2Cl)c1C(=O)Oc1ccc(Cl)cc1Cl`, the IkBa stabilization activation is reported as inconclusive: 1.25% [signal inhibitor].
In the case of `COc1ccc(CCN2C(=O)c3[nH]nc(-c4ccccc4O)c3C2c2cccc(O)c2)cc1OC` (stereo not given), the IkBa stabilization activation is reported as inconclusive: -0.264% [signal inhibitor].
In the case of `Cc1ccc2c(c1)c1c(c(=O)n(Cc3ccccc3)c(=O)n1Cc1ccccc1F)n2C`, the “IkBa stabilization activation” value is reported as inactive: 0.43%.
With `Cc1csc(NC(=O)Nc2ccc(Cl)cc2)n1` the Potency was inconclusive: 20 µM [signal inhibitor, partial curve].
In the case of `CCOC(=O)N1CCc2c(sc3c2c(=O)n(Cc2ccccc2)c(=O)n3CC(=O)Nc2ccc(F)cc2)C1`, the IkBa stabilization activation is reported as inconclusive: 3.79% [signal inhibitor].
In the case of `O=C(Nc1cc(Cl)cc(Cl)c1)c1cc(S(=O)(=O)NC2CCCC2)ccc1F`, the IkBa stabilization activation is reported as inconclusive: -3.22% [signal inhibitor].
In the case of `Cc1cccc(N2CCN(C(=O)C3CCN(C(=O)c4cc5sccc5n4C)CC3)CC2C)c1` (stereo not given), the IkBa stabilization activation is reported as inconclusive: 0.86% [signal inhibitor].
In the case of `CN(C)Cc1ccccc1-c1ccc2ncnc(NCc3cccs3)c2c1`, the IkBa stabilization activation is reported as inactive: -2.08% [at 11.4 µM, scaled: untreated 0%, proteasome inhibitor 100%].
For `COc1ccc(CN(C)c2ccc(-c3nc(-c4ccc(OC)c(OC)c4)no3)cc2[N+](=O)[O-])cc1`, the IkBa stabilization activation was inconclusive: -1.71% [signal inhibitor].
In the case of `CCOc1ccc2nc(Cl)c(C3CC(c4ccc(C)cc4)=NN3C(=O)CCC(=O)O)cc2c1` (stereo not given), the IkBa stabilization activation is reported as inconclusive: 2.13% [signal inhibitor].
In the case of `Cc1c(Cl)cccc1NC(=O)CCS(=O)(=O)c1ccc2c(c1)CC(C)N2C(=O)C1CC1` (stereo not given), the IkBa stabilization activation is reported as inconclusive: -0.832% [signal inhibitor].
With `CCC(C)S(=O)(=O)c1oc(-c2cccs2)nc1S(=O)(=O)c1ccccc1` (stereo not given) the IkBa stabilization activation was inconclusive: -3.8% [signal inhibitor].
For `COc1cccc(-c2nnc(SCC(=O)N(C)C3CCCCC3)o2)c1`, the IkBa stabilization activation was inconclusive: -2.75% [signal inhibitor].
In the case of `COc1ccc(-c2cc(C(F)(F)F)nc(N3CCCCC3)n2)cc1OC`, the “IkBa stabilization activation” value is reported as inactive: 1.19%.
In the case of `CCOc1ccccc1CNCc1c(C(=O)O)c(C)n(Cc2ccc(C)cc2)c1C`, the IkBa stabilization activation is reported as inconclusive: 2.1% [signal inhibitor].
For `CN1CCc2nc3sc(C(=O)c4ccc(F)cc4)c(N)c3cc2C1`, the IkBa stabilization activation was inconclusive: 0.815% [signal inhibitor].
In the case of `COc1cc(OC)cc(-c2nnc(Nc3nc4c(F)cccc4s3)o2)c1`, the “IkBa stabilization activation” value is reported as inactive: 13.6%.
With `CN1C(=O)c2cccc3c(S(=O)(=O)Nc4cccc(C(=O)O)c4)ccc1c23` the IkBa stabilization activation was inconclusive: 2.55% [signal inhibitor].

Reference: PubChem BioAssay AID445 (National Center for Advancing Translational Sciences (NCATS), 2006)
Potency is the fitted concentration of half-maximal effect.
